# According to the supplement of paper PMC8728848:
# The list shows a part of the results.
# Columns and labels:
# Assay in all cases: glycan array binding signal (z-score within array); higher = stronger binding
# Conditions in all cases: glycan notation: IUPAC condensed, linker removed
# [1] = biological target: Gal(b1-4)GlcNAc(b1-2)Man(a1-3)[Gal(b1-4)GlcNAc(b1-2)Man(a1-6)]Man(b1-4)GlcNAc(b1-4)GlcNAc
# How it was run: (§1)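 The Consortium for Functional Glycomics database supplied 3228 glycan arrays, of which those lacking an available protein sequence were dropped. The binding signal, a within-array Z-score, was averaged across arrays of the same protein sequence and across linkers. Negative scores can be read as non-binding.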
# [2] = biological target: Gal(b1-4)GlcNAc(b1-2)Man(a1-3)[Gal(b1-4)GlcNAc(b1-2)Man(a1-6)]Man(b1-4)GlcNAc(b1-4)[Fuc(a1-6)]GlcNAc
# How it was run: as §1
# [3] = biological target: Gal(b1-4)GlcNAc(b1-2)Man(a1-3)[Gal(b1-4)GlcNAc(b1-2)][GlcNAc(b1-4)]Man(b1-4)GlcNAc(b1-4)GlcNAc
# How it was run: as §1
# [4] = biological target: Gal(b1-4)GlcNAc(b1-2)Man(a1-3)[GlcNAc(b1-2)Man(a1-6)]Man(b1-4)GlcNAc(b1-4)GlcNAc
# How it was run: as §1
# [5] = biological target: Gal(b1-4)GlcNAc(b1-2)Man(a1-3)[Man(a1-6)]Man(b1-4)GlcNAc(b1-4)GlcNAc
# How it was run: as §1
# [6] = biological target: Gal(b1-4)GlcNAc(b1-2)Man(a1-6)Man(b1-4)GlcNAc(b1-4)GlcNAc
# How it was run: as §1
# [7] = biological target: Gal(b1-4)GlcNAc(b1-2)Man(a1-6)[GlcNAc(b1-2)Man(a1-3)]Man(b1-4)GlcNAc(b1-4)GlcNAc
# How it was run: as §1
# [8] = biological target: Gal(b1-4)GlcNAc(b1-2)Man(a1-6)[Man(a1-3)]Man(b1-4)GlcNAc(b1-4)GlcNAc
# How it was run: as §1
# [9] = biological target: Gal(b1-4)GlcNAc(b1-2)[Gal(b1-4)GlcNAc(b1-4)]Man(a1-3)[Gal(b1-4)GlcNAc(b1-2)Man(a1-6)]Man(b1-4)GlcNAc(b1-4)GlcNAc
# How it was run: as §1
# [10] = biological target: Gal(b1-4)GlcNAc(b1-2)[Gal(b1-4)GlcNAc(b1-4)]Man(a1-3)[Gal(b1-4)GlcNAc(b1-2)[Gal(b1-4)GlcNAc(b1-6)]Man(a1-6)]Man(b1-4)GlcNAc(b1-4)GlcNAc
# How it was run: as §1
# [11] = biological target: Gal(b1-4)GlcNAc(b1-2)[Gal(b1-4)GlcNAc(b1-4)]Man(a1-3)[GlcNAc(b1-4)][Gal(b1-4)GlcNAc(b1-2)Man(a1-6)]Man(b1-4)GlcNAc(b1-4)GlcNAc
# How it was run: as §1
# [12] = biological target: Gal(b1-4)GlcNAc(b1-2)[Gal(b1-4)GlcNAc(b1-4)]Man(a1-3)[GlcNAc(b1-4)][Gal(b1-4)GlcNAc(b1-2)[Gal(b1-4)GlcNAc(b1-6)]Man(a1-6)]Man(b1-4)GlcNAc(b1-4)GlcNAc
# How it was run: as §1
# [13] = biological target: Gal(b1-4)GlcNAc(b1-2)[Gal(b1-4)GlcNAc(b1-6)]Man(a1-6)[Gal(b1-4)GlcNAc(b1-2)Man(a1-3)]Man(b1-4)GlcNAc(b1-4)GlcNAc
# How it was run: as §1
# [14] = biological target: Gal(b1-4)GlcNAc(b1-2)[Gal(b1-4)GlcNAc(b1-6)]Man(a1-6)[GlcNAc(b1-4)][Gal(b1-4)GlcNAc(b1-2)Man(a1-3)]Man(b1-4)GlcNAc(b1-4)GlcNAc
# How it was run: as §1
# [15] = biological target: Gal(b1-4)GlcNAc(b1-3)Gal(b1-3)GlcNAc
# How it was run: as §1
# [16] = biological target: Gal(b1-4)GlcNAc(b1-3)Gal(b1-4)Glc
# How it was run: as §1
# [17] = biological target: Gal(b1-4)GlcNAc(b1-3)Gal(b1-4)GlcNAc
# How it was run: as §1
# [18] = biological target: Gal(b1-4)GlcNAc(b1-3)Gal(b1-4)GlcNAc(b1-3)Gal(b1-4)GlcNAc
# How it was run: as §1
# [19] = biological target: Gal(b1-4)GlcNAc(b1-3)Gal(b1-4)[Fuc(a1-3)GlcNAc(b1-6)]Gal(b1-4)Glc
# How it was run: as §1
# [20] = biological target: Gal(b1-4)GlcNAc(b1-3)Gal(b1-4)[Fuc(a1-3)]GlcNAc(b1-3)Gal(b1-4)[Fuc(a1-3)]GlcNAc
# How it was run: as §1
# [21] = biological target: Gal(b1-4)GlcNAc(b1-3)GalNAc
# How it was run: as §1
# [22] = biological target: Gal(b1-4)GlcNAc(b1-3)[Gal(b1-4)GlcNAc(b1-6)]Gal(b1-4)GlcNAc
# How it was run: as §1
# [23] = biological target: Gal(b1-4)GlcNAc(b1-3)[Gal(b1-4)GlcNAc(b1-6)]GalNAc
# How it was run: as §1
# [24] = biological target: Gal(b1-4)GlcNAc(b1-3)[GlcNAc(b1-6)]Gal(b1-4)GlcNAc
# How it was run: as §1
# [25] = biological target: Gal(b1-4)GlcNAc(b1-6)Gal(b1-4)GlcNAc
# How it was run: as §1
# [26] = biological target: Gal(b1-4)GlcNAc(b1-6)GalNAc
# How it was run: as §1
# [27] = biological target: Gal(b1-4)GlcNAc(b1-6)[Gal(b1-3)]GalNAc
# How it was run: as §1
# [28] = biological target: Gal(b1-6)Gal
# How it was run: as §1
# [29] = biological target: Gal3S(b1-3)GalNAc
# How it was run: as §1
# [30] = biological target: Gal3S(b1-3)GlcNAc
# How it was run: as §1
# [31] = biological target: Gal3S(b1-3)[Fuc(a1-4)]GlcNAc
# How it was run: as §1
# [32] = biological target: Gal3S(b1-4)Glc
# How it was run: as §1
# [33] = biological target: Gal3S(b1-4)Glc6S
# How it was run: as §1
# [34] = biological target: Gal3S(b1-4)GlcNAc
# How it was run: as §1
# [35] = biological target: Gal3S(b1-4)GlcNAc6S
# How it was run: as §1
# [36] = biological target: Gal3S(b1-4)[Fuc(a1-3)]Glc
# How it was run: as §1
# [37] = biological target: Gal3S(b1-4)[Fuc(a1-3)]Glc6S
# How it was run: as §1
# [38] = biological target: Gal3S4S(b1-4)GlcNAc
# How it was run: as §1
# [39] = biological target: Gal3S6S(b1-4)GlcNAc
# How it was run: as §1
# [40] = biological target: Gal3S6S(b1-4)GlcNAc6S
# How it was run: as §1
# [41] = biological target: Gal4S(b1-4)GlcNAc
# How it was run: as §1
# [42] = biological target: Gal4S6S(b1-4)GlcNAc
# How it was run: as §1
# [43] = biological target: Gal6S(b1-3)GlcNAc
# How it was run: as §1
# [44] = biological target: Gal6S(b1-3)GlcNAc6S
# How it was run: as §1
# [45] = biological target: Gal6S(b1-4)Glc
# How it was run: as §1
binder,measurement,setting,value
XCL (Xerocomus chrysenteron) (protein) MSYSITLRVYQTNRDRGYFSIVEKTVWHFANGGTWSEANGAHTLTQGGSGTSGVLRFLSTKGERITVAVGVHNYKRWCDVVTGLKPDETALVINPQYYNNGGRDYVREKQLAEYSVTSAIGTKVEVVYTVAEGNNLEANVIFS,glycan array binding signal (z-score),[1],-0.32
same,glycan array binding signal (z-score),[2],-0.32
same,glycan array binding signal (z-score),[3],-0.321
same,glycan array binding signal (z-score),[4],1.04
same,glycan array binding signal (z-score),[5],-0.272
same,glycan array binding signal (z-score),[6],-0.295
same,glycan array binding signal (z-score),[7],1.04
same,glycan array binding signal (z-score),[8],-0.316
same,glycan array binding signal (z-score),[9],-0.298
same,glycan array binding signal (z-score),[10],-0.324
same,glycan array binding signal (z-score),[11],-0.322
same,glycan array binding signal (z-score),[12],-0.324
same,glycan array binding signal (z-score),[13],-0.308
same,glycan array binding signal (z-score),[14],-0.315
same,glycan array binding signal (z-score),[15],-0.314
same,glycan array binding signal (z-score),[16],-0.299
same,glycan array binding signal (z-score),[17],-0.311
same,glycan array binding signal (z-score),[18],-0.287
same,glycan array binding signal (z-score),[19],-0.311
same,glycan array binding signal (z-score),[20],-0.258
same,glycan array binding signal (z-score),[21],0.082
same,glycan array binding signal (z-score),[22],-0.331
same,glycan array binding signal (z-score),[23],-0.282
same,glycan array binding signal (z-score),[24],-0.216
same,glycan array binding signal (z-score),[25],-0.324
same,glycan array binding signal (z-score),[26],-0.271
same,glycan array binding signal (z-score),[27],1.2
same,glycan array binding signal (z-score),[28],-0.322
same,glycan array binding signal (z-score),[29],3.44
same,glycan array binding signal (z-score),[30],-0.319
same,glycan array binding signal (z-score),[31],-0.322
same,glycan array binding signal (z-score),[32],-0.269
same,glycan array binding signal (z-score),[33],-0.29
same,glycan array binding signal (z-score),[34],-0.311
same,glycan array binding signal (z-score),[35],-0.315
same,glycan array binding signal (z-score),[36],-0.313
same,glycan array binding signal (z-score),[37],-0.273
same,glycan array binding signal (z-score),[38],-0.327
same,glycan array binding signal (z-score),[39],-0.308
same,glycan array binding signal (z-score),[40],-0.308
same,glycan array binding signal (z-score),[41],-0.317
same,glycan array binding signal (z-score),[42],-0.328
same,glycan array binding signal (z-score),[43],-0.278
same,glycan array binding signal (z-score),[44],-0.321
same,glycan array binding signal (z-score),[45],-0.315
